Patent US20250163048A1 (Tango Therapeutics, Inc., priority 2022, published 2025)

Tests used:
[1] = system: HAP1 MTAP-intact cell line; assay: SDMA in-cell western assay, HAP1 MTAP-intact; conditions: Homo sapiens
[2] = system: MTAP-deleted cell line; assay: viability assay for the MTAP-deleted cell line; format: cell-based; conditions: Homo sapiens, HAP1, viability assay
[3] = system: HAP1 MTAP-deleted cell line; assay: SDMA in-cell western assay, HAP1 MTAP-deleted; conditions: for IC50 / IC90: Homo sapiens; for Hap1 MTAP intact/deleted ratio: IC50 ratio between HAP1 MTAP-intact and HAP1 MTAP-deleted cell line
[4] = HAP1, read-out: Hap1 MTAP intact IC50, SDMA in-cell western assay, HAP1 MTAP-intact cell line
[5] = HAP1, read-out: Hap1 MTAP deleted IC50, SDMA in-cell western assay, HAP1 MTAP-deleted cell line
[6] = HAP1, read-out: Hap1 MTAP deleted IC90, SDMA in-cell western assay, HAP1 MTAP-deleted cell line
[7] = HAP1, read-out: Hap1 MTAP intact IC50, SDMA in-cell western, HAP1 MTAP-intact cell line
[8] = HAP1, read-out: Hap1 MTAP deleted IC50, SDMA in-cell western, HAP1 MTAP-deleted cell line
[9] = HAP1, read-out: Hap1 MTAP deleted IC90, SDMA in-cell western, HAP1 MTAP-deleted cell line

Compound	IC50 [1, 4] [nM]	IC50 [2] [nM]	IC50 [3, 5] [nM]	IC90 [3, 6] [nM]	Hap1 MTAP intact/deleted ratio ([3]; SDMA in-cell western assay)	IC50 [1, 7] [nM]	IC50 [3, 8] [nM]	IC90 [3, 9] [nM]	Hap1 MTAP intact/deleted ratio ([3]; SDMA in-cell western)
CC(C)n1nccc1[C@@H]1CC[C@H](C)CN1C(=O)C(=O)Nc1cnc(N)c2cn[nH]c12 (stereo in doubt) [Compound 280, N-(4-Amino-1H-pyrazolo[4,3-c]pyridin-7-yl)-2-oxo-2-[rac-(2S,5S)-2-(2-isopropylpyrazol-3-yl)-5-methyl-1-piperidyl]acetamide]	> 50	< 100	5 to 50	75 to 125	A (“A” indicates an IC50 ratio greater than or equal to 30 fold)				
C[C@H]1CC[C@H](c2ccccc2)N(C(=O)C(=O)Nc2cnc(N)c3c2COC3)C1 (racemic) [Compound 188, N-(4-amino-1,3-dihydrofuro[3,4-c]pyridin-7-yl)-2-oxo-2-[rac-(2R,5S)-5-methyl-2-phenyl-1-piperidyl]acetamide]		100 to 1000				> 50	5 to 50	75 to 125	A (“A” indicates an IC50 ratio greater than or equal to 30 fold)
Cc1cc([C@H]2CC[C@H](C)CN2C(=O)C(=O)Nc2cnc(N)c3cn[nH]c23)cs1 [Compound 169]		< 100				> 50	< 5	< 75	B (“B” indicates an IC50 ratio greater than or equal to 15 fold but lower than 30 fold)
C[C@H]1CC[C@H](c2cccc3c2cnn3C)N(C(=O)C(=O)Nc2cnc(N)c3cn[nH]c23)C1 (racemic) [Compound 257, N-(4-Amino-2H-pyrazolo[4,3-c]pyridin-7-yl)-2-oxo-2-[rac-(5S)-5-methyl-2-(1-methylindazol-4-yl)-1-piperidyl]acetamide]	5 to 50	< 100	< 5	< 75	C (“C” indicates an IC50 ratio of less than 15 fold)				
C[C@@H]1CC[C@@H](C2CCC2)N(C(=O)C(=O)Nc2cnc(N)c3cn[nH]c23)C1 (racemic) [Compound 249, N-(4-Amino-1H-pyrazolo[4,3-c]pyridin-7-yl)-2-oxo-2-[rac-(2S,5R)-2-cyclobutyl-5-methyl-1-piperidyl]acetamide]	> 50	< 100	< 5	< 75	A (“A” indicates an IC50 ratio greater than or equal to 30 fold)				
C[C@@H]1CC[C@@H](c2ccc3sc(CCN(C)C)nc3c2)N(C(=O)C(=O)Nc2ccn3ccnc3c2)C1 (single isomer, unassigned) [Compound 27, 2-(2-(2-(2-(dimethylamino)ethyl)benzo[d]thiazol-5-yl)-5-methylpiperidin-1-yl)-N-(imidazo[1,2-a]pyridin-7-yl)-2-oxoacetamide]		> 1000				> 50	> 50	> 125	C (“C” indicates an IC50 ratio of less than 15 fold)
C[C@H]1CC[C@H](c2ccc3sc(C4CCN(C)C(=O)C4)nc3c2)N(C(=O)C(=O)Nc2cncc3cn[nH]c23)C1 (single isomer, unassigned) [Compound 98]		100 to 1000				> 50	5 to 50	75 to 125	B (“B” indicates an IC50 ratio greater than or equal to 15 fold but lower than 30 fold)
C[C@H]1CC[C@H](c2ccc3sc([C@H](C)CN4CCCC4)nc3c2)N(C(=O)C(=O)Nc2cncc3cn[nH]c23)C1 [Compound 28, 2-oxo-N-(1H-pyrazolo[4,3-c]pyridin-7-yl)-2-[(2R,5S)-5-methyl-2-[2-[(1R)-1-methyl-2-pyrrolidin-1-yl-ethyl]-1,3-benzothiazol-5-yl]-1-piperidyl]acetamide]		< 100				5 to 50	< 5	< 75	C (“C” indicates an IC50 ratio of less than 15 fold)
C[C@H]1CC[C@H](c2ccc3sc(CN(C)C)nc3c2)N(C(=O)C(=O)Nc2cncc3cn[nH]c23)C1 [Compound 29, 2-((2R,5S)-2-(2-((dimethylamino)methyl)benzo[d]thiazol-5-yl)-5-methylpiperidin-1-yl)-2-oxo-N-(1H-pyrazolo[4,3-c]pyridin-7-yl)acetamide]		100 to 1000				> 50	5 to 50	75 to 125	B (“B” indicates an IC50 ratio greater than or equal to 15 fold but lower than 30 fold)
C[C@H]1CC[C@H](c2ccc3c(c2)CCC(=O)N3)N(C(=O)C(=O)Nc2cnc(N)c3cn[nH]c23)C1 (racemic) [Compound 218, N-(4-Amino-1H-pyrazolo[4,3-c]pyridin-7-yl)-2-oxo-2-[rac-(2R,5S)-5-methyl-2-(2-oxo-3,4-dihydro-1H-quinolin-6-yl)-1-piperidyl]acetamide]	> 50	< 100	5 to 50		C (“C” indicates an IC50 ratio of less than 15 fold)				
C[C@H]1CC[C@H]([C@@H]2CCCCO2)N(C(=O)C(=O)Nc2cnc(N)c3cn[nH]c23)C1 [Compound 222]	> 50	< 100	< 5	< 75	A (“A” indicates an IC50 ratio greater than or equal to 30 fold)				
C[C@H]1CC[C@H](c2ccc3sc(C4CCN(C)C(C)(C)C4)nc3c2)N(C(=O)C(=O)Nc2cncc3cn[nH]c23)C1 (mixture of isomers) [Compound 59, 2-((2R,5S)-5-methyl-2-(2-(1,2,2-trimethylpiperidin-4-yl)benzo[d]thiazol-5-yl)piperidin-1-yl)-2-oxo-N-(1H-pyrazolo[4,3-c]pyridin-7-yl)acetamide]		< 100				5 to 50	< 5	< 75	C (“C” indicates an IC50 ratio of less than 15 fold)
C[C@H]1CC[C@H](c2ccc3sc(C4CCOCC4)nc3c2)N(C(=O)C(=O)Nc2cncc3cn[nH]c23)C1 (single isomer, unassigned) [Compound 97]		< 100				> 50	< 5	75 to 125	A (“A” indicates an IC50 ratio greater than or equal to 30 fold)
C[C@H]1CC[C@H](c2ccc3sc(C4(CN(C)C)COC4)nc3c2)N(C(=O)C(=O)Nc2cncc3c(N)nccc23)C1 [Compound 82, N-(8-amino-2,7-naphthyridin-4-yl)-2-((2R,5S)-2-(2-(3-((dimethylamino)methyl)oxetan-3-yl)benzo[d]thiazol-5-yl)-5-methylpiperidin-1-yl)-2-oxoacetamide]		100 to 1000				> 50	5 to 50	> 125	A (“A” indicates an IC50 ratio greater than or equal to 30 fold)
C[C@H]1CC[C@H](c2ccc3sc(C4CCCN(C)C4)nc3c2)N(C(=O)C(=O)Nc2cncc3cn[nH]c23)C1 (mixture of isomers) [Compound 3, 2-((2R,5S)-5-methyl-2-(2-(1-methylpiperidin-3-yl)benzo[d]thiazol-5-yl)piperidin-1-yl)-2-oxo-N-(1H-pyrazolo[4,3-c]pyridin-7-yl)acetamide]		< 100				5 to 50	< 5	< 75	C (“C” indicates an IC50 ratio of less than 15 fold)
Cc1cnc2cc(NC(=O)C(=O)N3C[C@@H](C)CC[C@@H]3c3ccc4sc(C5CCN(C)CC5)nc4c3)ccn12 [Compound 74, N-(3-methylimidazo[1,2-a]pyridin-7-yl)-2-oxo-2-[(2R,5S)-5-methyl-2-[2-(1-methyl-4-piperidyl)-1,3-benzothiazol-5-yl]-1-piperidyl]acetamide]		< 100				> 50	< 5	< 75	A (“A” indicates an IC50 ratio greater than or equal to 30 fold)
CC(CN1CCCC1)c1nc2cc([C@H]3CC[C@H](C)CN3C(=O)C(=O)Nc3ccn4ccnc4c3)ccc2s1 (stereo partly drawn) [Compound 32, N-(imidazo[1,2-a]pyridin-7-yl)-2-((2R,5S)-5-methyl-2-(2-(1-(pyrrolidin-1-yl)propan-2-yl)benzo[d]thiazol-5-yl)piperidin-1-yl)-2-oxoacetamide]		< 100				> 50	< 5	75 to 125	A (“A” indicates an IC50 ratio greater than or equal to 30 fold)
C[C@H]1CC[C@H](c2ccc3sc(C4CCCN(C)C4)nc3c2)N(C(=O)C(=O)Nc2ccn3ccnc3c2)C1 (stereo partly drawn) [Compound 33, N-(imidazo[1,2-a]pyridin-7-yl)-2-((2R,5S)-5-methyl-2-(2-(1-methylpiperidin-3-yl)benzo[d]thiazol-5-yl)piperidin-1-yl)-2-oxoacetamide]		< 100				5 to 50	< 5	< 75	C (“C” indicates an IC50 ratio of less than 15 fold)
C[C@H]1CC[C@H](c2ccc3[nH]ncc3c2)N(C(=O)C(=O)Nc2cnc(N)c3cn[nH]c23)C1 [Compound 190, 2-((2R,5S)-2-(1H-indazol-5-yl)-5-methylpiperidin-1-yl)-N-(4-amino-2H-pyrazolo[4,3-c]pyridin-7-yl)-2-oxoacetamide]		< 100				5 to 50	< 5	< 75	C (“C” indicates an IC50 ratio of less than 15 fold)

Read-outs that look alike come from different tables or passages of the source.
